According to PubChem BioAssay AID493208 (National Center for Advancing Translational Sciences (NCATS), 2011):
The whole screen tested about 44,000 compounds, of which about 340 (0.77%) were called active. Not shown: some 5% with an inconclusive outcome. Calls follow the shape of the dose curve; as a rule, active = well fitted inhibition curve with a large enough effect; inconclusive = small, poorly fitted or top-dose-only effect; inactive = flat fitted curve, though single readings scatter. The list shows a part of the results.

assay: Acumen qHTS Assay for Inhibitors of the mTORC1 Signaling Pathway in MEF (Tsc2-/-, p53-/-) Cells: Sytravon; conditions: phospho-rpS6 immunofluorescence/PI, 24 h; series mostly up to 38.3 µM; activity change, negative = inhibition: at the top concentration;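 also: plate controls were DMSO for no effect and rapamycin for full effect; nearly all actives have a fitted effect of over 50% in size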
Summary of the method: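 Readout is phospho-S6 Alexa 488 signal normalized to PI per well, reported as % active cells with thresholds set from rapamycin (7.5 nM) and DMSO controls. Cells: Tsc2-/-, p53-/- MEFs, 24 hrs compound at 37 C; PI cell number serves as viability.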

| SMILES | activity change, negative = inhibition |
| --- | --- |
| O=c1n(Cc2cccc(F)c2)c2ccccc2c2nc(-c3ccccc3)nn12 | inactive: 4.99% |
| CN(C)C=NC(=O)c1cc2c(n(-c3ccccc3)c1=O)CC(C)(C)CC2=O | inactive: -9.2% |
| COc1cccc(CSc2nc3n(n2)C(c2cccc(F)c2)C(C(=O)Nc2ccccc2C)=C(C)N3)c1 (stereo not drawn) | inactive: -1.32% |
| CN(C)c1cc2c(cc1NS(=O)(=O)c1ccccc1)n(C)c(=O)n2C | inactive: 1.59% |
| COc1ccc(CN(C(=O)Nc2cccc(Cl)c2)c2ccccn2)cc1OC | inactive: -9.98% |
| Cc1ccc(O)c(NC(=O)c2cc(-c3ccc4c(c3)OCO4)on2)c1 | inactive: -2.03% |
| COc1ccc(CNC(=O)CCCN2C(=O)CSc3c2c(C)nn3-c2ccccc2)c(OC)c1 | inactive: 3.92% |
| COCCNC(=O)CCC(=O)N1Cc2cccc(OC)c2Oc2ncccc21 | inactive: -8.67% |
| COc1ccc(Cl)cc1NC(=O)CCS(=O)(=O)c1cccc2nonc12 | inactive: -8.23% |
| Cc1ccc(NC(=O)C(=O)NCC(c2cccnc2)N2CCOCC2)cc1Cl (stereo not drawn) | inactive: -15.6% |
| CCc1ccc(NC(=O)Cn2ccn(Cc3ccccc3OC)c(=O)c2=O)cc1 | inactive: 0.746% |
| CCn1cc(S(=O)(=O)c2cccc(Cl)c2)c(=O)c2cc(F)c(N3CCC(C)CC3)cc21 | inactive: 5.05% |
| Cc1ccc(NC(=O)c2c(C)oc3ncnc(N4CCCCC4)c23)cc1Cl | inactive: 1.59% |
| Cc1ccc(-n2nc(C)c3c(C)cc(=O)n(CC(=O)N4CCCc5ccccc54)c32)cc1 | inactive: -7.99% |
| O=C(Cc1ccc(Cl)cc1)Nc1nnc2n1CCS2 | inactive: -0.135% |
| COc1ccc(C)cc1NC(=O)CCc1c(C)nn(-c2ccc(N3CCOCC3)nn2)c1C | inactive: -0.287% |
| O=C(COCc1cc(-c2cccs2)on1)NCc1ccc(Cl)cc1 | inactive: -1.45% |
| COc1cccc(CNC(=O)Cc2csc3ccccc23)c1OC | inactive: -15.7% |
| COc1ccc(NC(=O)C(=O)NCC2(c3ccc(OC)c(OC)c3)CCCC2)cc1 | inactive: -4.01% |
| COc1cccc(OCc2nc3ccccc3n2Cc2ccccc2C)c1 | inactive: 0.927% |
| COc1ccc(NC(=O)CCCSc2nc(-c3ccco3)cc(C(F)(F)F)n2)c(OC)c1 | inactive: 1.24% |

| SMILES | activity change, negative = inhibition |
| --- | --- |
| CCCOC(=O)c1c(NC(=O)C2c3ccccc3Oc3ccccc32)sc2c1CCCC2 | inactive: 3.42% |
| COc1cc(NC(=O)Cn2nnc(-c3ccc(C(F)(F)F)cc3)n2)c(C(=O)O)cc1OC | inactive: 0.711% |
| CCOc1ccc(N(CC)C(=O)C2CCN(S(=O)(=O)c3cccc4nonc34)CC2)cc1 | inactive: -1.12% |
| COc1ccc(CCC(=O)NC2CC(=O)N(c3cccc(F)c3)C2)cc1 (stereo not drawn) | inactive: 1.69% |
| CCC(=O)n1nc(-c2cccnc2)nc1NCc1ccc(F)cc1 | inactive: 2.52% |
| O=C(Cn1c(=O)oc2cc(S(=O)(=O)NCc3ccccc3)ccc21)Nc1ccc(F)c(Cl)c1 | inactive: -5.37% |
| Cc1cc(C)c(NC(=O)CCn2c(=O)c3cccn3c3cccnc32)c(C)c1 | inactive: -6.05% |
| CCc1ccccc1NC(=O)Cn1nc(C(F)(F)F)c2c1CCCC2 | inactive: -4.02% |
| OCCN1CCN(C(c2ccccc2Cl)c2sc3nc(-c4ccco4)nn3c2O)CC1 (stereo not drawn) | inactive: 0.629% |
| CCCS(=O)(=O)N1CC(=O)N(c2cc(C)ccc2C)C(C)(C(=O)NC2CCCCCC2)C1 (stereo not drawn) | inactive: 4.44% |
| COc1cccc(-c2cn3c(n2)sc2cc(C(=O)NCCc4ccc(OC)c(OC)c4)ccc23)c1 | inactive: -7.47% |
| CC(C)N1C(=O)C(O)(c2c[nH]c3ccccc23)c2ccccc21 (stereo not drawn) | inactive: -5.36% |
| Cc1cccc(N2CCn3c2nc2c3c(=O)n(CCc3ccccc3)c(=O)n2C)c1 | inactive: -1.4% |
| Cc1cccc(N2C(=O)CS(=O)(=O)C23C(=O)N(Cc2c(F)cccc2Cl)c2ccccc23)c1 (stereo not drawn) | inactive: 2.22% |
| CSc1cccc(NC(=O)CN2CCN(Cc3ccccc3C)S2(=O)=O)c1 | inactive: -8.07% |
| Cc1cc(N)c(-n2cc3c(c2-c2ccc(Br)cc2)c(=O)n(C)c(=O)n3C)cc1C | inactive: -2.28% |
| O=C(O)CCCNc1cc(N2CCN(C3CCCCC3)CC2)c2noc3c2c1C(=O)c1ccccc1-3 | inactive: -8.01% |
| CCOc1ccc(-c2cc(C(=O)Nc3ccc(NC(C)=O)cc3)no2)cc1 | inactive: -3.29% |
| CCOc1ccc(OCC)c(NC(=O)CC(C)n2nc(C)cc2C)c1 (stereo not drawn) | inactive: -8.26% |
| Cc1ccc2onc(CNC(=O)NCc3cccc(Cl)c3)c2c1 | inactive: 3.85% |
| CCOc1ccc(NC(=O)CC2C(=O)N(c3ccc(C)cc3)C(=O)N2CCC2=CCCCC2)cc1 (stereo not drawn) | inactive: 3.55% |

| SMILES | activity change, negative = inhibition |
| --- | --- |
| Nc1nonc1-c1nc2ccccc2n1Cc1cccc(Cl)c1 | inactive: -22.6% |
| O=C(c1cccn2c(=O)c3cc(Cl)ccc3nc12)N1CCN(c2ccccc2F)CC1 | inactive: -1.53% |
| Cc1ccc(CN(C(=O)c2ccccc2F)c2ccccn2)o1 | inactive: -5.8% |
| CC(C)c1ccc(NC(=O)c2ccc(F)c(S(=O)(=O)N3CCc4ccccc4C3)c2)cc1 | inactive: 4% |
| CC(=O)Nc1ccc(S(=O)(=O)N2CCC(c3nnnn3-c3ccccc3)CC2)cc1 | inactive: -2.57% |
| CCOc1ccc(-n2nc(CO)c(C(=O)NCCCc3ccccc3)n2)cc1 | inactive: -6.31% |
| COc1ccc(Cl)cc1NC(=O)Cn1cc(C(=O)c2ccc(C)cc2)c(=O)c2ccc(C)nc21 | inactive: 5.47% |
| CCOc1ccc(C(=O)Nc2cccc(C(=O)OCc3cc(=O)n4nc(C5CC5)sc4n3)c2)cc1 | inactive: 14.9% |
| CCOC(=O)c1ccccc1NC(=O)CSc1nc(=O)[nH]c2c1CCC2 | inactive: -3.27% |
| Cc1ccccc1CN1C(=O)C2(c3ccccc31)N(c1ccccc1)C(=O)CS2(=O)=O (stereo not drawn) | inactive: 2.09% |
| COc1ccc(CCNC(=O)c2c(O)nc3ccccn3c2=O)cc1 | inactive: -3.12% |
| O=C(COc1ccc(Cl)cc1)Nc1ccc(C(=O)OCc2cc(=O)n3ccsc3n2)cc1 | inactive: 1.07% |
| C=Cc1ccc(Cn2c(C)c(CNCCc3ccccc3C)c(C(=O)O)c2C)cc1 | inactive: -0.815% |
| FC(F)(F)Oc1ccc2c(c1)NC(c1ccncc1)=NC(c1cccs1)=N2 | inactive: -13.6% |
| Cc1ccn2c(=O)c(C(=O)NCCCN3CCCCC3C)c(O)nc2c1 (stereo not drawn) | inactive: -7.57% |
| C=CCc1cccc2cc(C(=O)Nc3ccc(F)cc3)c(=O)oc12 | inactive: -6.83% |
| COc1ccc2oc(=O)c(C(=O)Nc3ccc(C(=O)O)cc3)cc2c1 | inactive: -18.5% |
| Cc1ccc(NC(=O)CCSc2nc(-c3ccco3)cc(C(F)(F)F)n2)cc1F | inactive: -4.19% |
| COc1ccc(OCC(=O)Nc2nnc3n2CCS3)cc1 | inactive: -1.25% |
| Cc1c(Cl)cccc1NC(=O)c1ncoc1-c1ccco1 | inactive: 0% |
| Cc1ccc(NC(=O)C(C)n2nnc3sc4c(c3c2=O)CCCC4)cc1Cl (stereo not drawn) | inactive: 1.66% |
